The list shows a part of the results.
system: PF3D7_0420300 AP2 domain 1 (GST-tagged); test: gcPBM binding intensity (ln(normalized median fluorescence intensity)); higher = stronger DNA binding
Method in brief: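 GST-tagged P. falciparum DNA-binding domains produced in E. coli were incubated for 1 h on an Agilent 4 × 180k array of primer-extended double-stranded 36-bp intergenic genomic probes with negative controls. Binding intensity is the highest Masliner-normalised natural-log median intensity across replicate spots of either probe orientation, with bound protein detected by Alexa488 anti-GST antibody at 488 nm.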

| Sequence | gcPBM binding intensity (ln) |
| --- | --- |
| TTTTTTTTTTTTTTTACACACATTTGAATAACTTTA [CACACA_site6810] | 9.24 |
| AAAAGAATTAAAAAATGTACATATAATATATATATA [XGTACX_site6721] | 9.22 |
| CTTAATATGAATAAAACACACATATATAATTTGTAA [CACACA_site5120] | 9.38 |
| AAAAAAGAAGACATCTAAGTAATAGTAACAATGTAT [CACACA_negctrl_site1660] | 9.45 |
| GACATATTATTCATGTGTACATATTATATGTATATA [XGTACX_site3442] | 9.32 |
| AAGAATTTAGAAGGCATGCACTTAAACATGCATATA | 9.12 |
| TATAAATATACACCCACACACATATATAAATAAATA [CACACA_site7717] | 9.89 |
| ATATGTTTGATTTTTTTTTTTTTTTTTTTTATGTGT [CACACA_negctrl_site1001] | 9.39 |
| AAAAAAAAAATTAAAAGTACAGAAAATAAATAAATA [XGTACX_site7470] | 9.27 |
| TTAATACACCATAAAAGTACATAATATGATATTTAA [XGTACX_site8561] | 9.23 |
| TTTTTCTTTTTTTTTTCCTTTATCACATAAGAAAAA [CACACA_negctrl_site192] | 8.89 |
| AAAATGAAGAAGTGCACACATATATATATTTATATA [CACACA_site507] | 9.59 |
| AAGATATGAGGGAATACACACATATATATATATATA [CACACA_site1581] | 9.37 |
| AAGAAAATAAATAATACACACAAGGATTTGTAAATA [CACACA_site690] | 9.71 |
| CTTTTTTTTTAAAAATGTACACATTTTTGAAAATAC [XGTACX_site3127] | 8.92 |
| CATAATATATATTGAGCATGCTACTATTGTTAGAAA [TGCATGCA_site740] | 9.18 |
| ACATATAAGATATATACACACATATAAATACATTAA [CACACA_site7763] | 9.7 |
| AAAAAAAAAAACTACACACATACAAATATTTATATA [CACACA_site2574] | 9.58 |
| TTATAAAAAGAACAATTAAAAAAAAATAAAATAAAA [XGTACX_negctrl_site398] | 9.13 |
| AGAATAGTGGAAAACACACACGTTTGAGATATGGAC [CACACA_site4782] | 9.75 |
| CACCCACCCACATACACACACATACACATATATATA [CACACA_site1722] | 10.2 |
| GCACGTGTGATTAGATGTACATAACATGTATATGTC [XGTACX_site4632] | 9.18 |
| TTTTTATGTTCTATATATATATATATATATATATAT [GTGCAC_negctrl_site306] | 9.25 |
| CAAATAAAAAAAGTAGCACACATGAATAAAATATAT [CACACA_site3130] | 9.73 |

Source: the supplement of paper PMC11417369
